Assay results from PubChem BioAssay AID1508642 (National Center for Advancing Translational Sciences (NCATS), 2021).
Hit rate of the full screen: of about 43,000 compounds, about 200 (0.47%) were called active. Roughly 12% stayed inconclusive and do not appear here. Calls come from the whole dose curve; as a rule, active = well fitted cell-killing curve with a large enough effect; inconclusive = small, poorly fitted or top-dose-only effect, or effect the other way; inactive = flat fitted curve, though single readings scatter. The list shows a part of the results.

Test: Cell viability qHTS assay in S16 Pmp22-F2sN cells; note: nearly all actives have a fitted effect of over 65% in size
Settings: S16 Pmp22-F2sN Schwann cells viability, CellTiter-Glo, 24 h; series mostly up to 57.5 µM; activity change, negative = cytotoxicity: at the top concentration
Method in brief: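 S16 Pmp22-F2sN Schwann cells (500-1,000/well) in phenol-red-free DMEM with 10% FBS received 23 nL compound by pin tool for 24 h at 37 °C. Viability was then read as CellTiter-Glo luminescence after 15 min at room temperature.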
% is set by controls: 0 for no effect and ±100 for the full control effect.

SMILES | activity change, negative = cytotoxicity
CC1CCN(c2nc3ccccc3nc2C(F)(F)F)CC1 | inactive: 2.71%
Cc1cccc(CN2C(=O)c3ccccc3Sc3ccc(C(=O)NCCCN4CCOCC4)cc32)c1 | inactive: -1.6%
O=C(Nc1nc2ccccc2n1CCOc1ccccc1Cl)c1ccccc1 | inactive: 7.83%
CC1CN(C(=O)N2CCC(C(=O)NCc3ccco3)CC2)c2ccccc2O1 (stereo not drawn) | inactive: 1.07%
CCN(CC)S(=O)(=O)c1nnc(NC(=O)c2ccc(C)cc2)s1 | inactive: -1.95%
CCCNC(=O)C1CCC(Cn2c(=O)c3sccc3n(CC(=O)N3CCCC3)c2=O)CC1 (stereo not drawn) | inactive: 1.01%
CCc1cccc(C)c1NC(=O)CN1C(=O)c2ccccc2Sc2ncccc21 | inactive: 0.699%
COC(=O)c1sc2cccc(F)c2c1S(=O)(=O)Nc1cc(C)c(Cl)cc1OC | inactive: -5.87%
O=C(COc1ccc(Cl)cc1)Nc1ccc(-c2nc3cc(Cl)ccc3o2)c(O)c1 | inactive: 8.26%
Cc1c(C(=O)Nc2cccc(C#N)c2)sc2nc3n(c(=O)c12)CCCCC3 | inactive: -5.72%
CCCNC(=O)CN1C(=O)c2c(c3ccccc3n2C)C1c1ccc(OC)cc1 (stereo not drawn) | inactive: -1.91%
COc1ccc(CNC(=O)c2cc3oc4ccccc4c3n2C)cc1OC | inactive: -3.77%
Cn1c(=O)c2cc(C(=O)Nc3cccc(C#N)c3)sc2c2ccccc21 | inactive: 5.04%
COc1ccc(C2=NN(CC(=O)NCCc3ccccc3)C(=O)CC2)cc1 | inactive: 3.61%
CCC(=O)Nc1ccccc1-c1nc2ccccc2n(CC(=O)Nc2ccc(C)c(C)c2)c1=O | inactive: 2.38%
CCc1ccc(NC(=O)C2CCN(S(=O)(=O)c3c(C)noc3C)CC2)cc1 | inactive: 3.01%
COc1ccc(Cl)cc1NC(=O)c1sc2nc(-c3ccc(OC)c(OC)c3)ccc2c1N | inactive: -1.07%
O=C(NCc1ccccc1)c1ccc2c(c1)N(Cc1ccc(F)cc1)CCS2 | inactive: -25.3%
COc1ccc(CCNC(=O)CSCc2nc(-c3cccc(C)c3)oc2C)cc1OC | inactive: -23.9%
O=C(NC1CCCC1)c1ccc(CSc2nc3cccnc3n2Cc2ccccc2)cc1 | inactive: 3.35%
COC(=O)c1ccc(NC(=O)NC(C)c2c(-n3cccc3)sc(C)c2C)cc1 (stereo not drawn) | inactive: 1.92%

SMILES | activity change, negative = cytotoxicity
O=C(Nc1ccc(Br)cc1F)c1cc2nc(-c3ccco3)cc(C(F)(F)Cl)n2n1 | inactive: 3.11%
Cc1cc(Br)ccc1NC(=O)CCNS(=O)(=O)c1cccc2nonc12 | inactive: -2.17%
COc1ccc2c(c1)CC(C(=O)Nc1ccc(OC)cc1OC)CO2 (stereo not drawn) | inactive: -2.55%
CCOc1ccc(OCC)c(Nc2nc3ccc(C(=O)c4ccccc4)cc3n3cnnc23)c1 | inactive: -0.108%
O=C(Cn1cc(SCc2ccccc2F)c2ccccc21)N1CCCC1 | inactive: -1.44%
Cc1ccc(NC(=O)c2ccc(N(Cc3ccccc3)S(C)(=O)=O)cc2)cc1 | inactive: -24.4%
O=C(Nc1nc2c(s1)CCCC2)c1ccccc1F | inactive: -15%
CC(C)c1ccc(C2=NC(c3ccncc3)=Nc3ccc(F)cc3N2)cc1 | inactive: -0.23%
CCOC(=O)c1ccc(N2C(=O)c3n[nH]c(-c4cccs4)c3C2c2ccc(OC)cc2OC)cc1 (stereo not drawn) | inactive: -22.3%
CCC1CCc2c(sc(NC(=O)C3c4ccccc4Oc4ccccc43)c2C(=O)OC)C1 (stereo not drawn) | inactive: -21.1%
Cc1ccc(C(=O)c2oc3ccccc3c2NC(=O)C(C)Oc2ccccc2Cl)cc1 (stereo not drawn) | inactive: -1.46%
CCOC(=O)N1CCC(NC(=O)c2ccc3c(c2)N(Cc2ccc(Cl)cc2)C(=O)c2ccccc2S3(=O)=O)CC1 | inactive: 11.6%
CCOC(=O)c1c(S(=O)(=O)N2CCN(c3cccc(C(F)(F)F)c3)CC2)c(C)n(C)c1C | inactive: -20.3%
CCOc1ccc(Cn2c(CNS(=O)(=O)c3ccc(CC)cc3)nc3cccnc32)cc1 | inactive: 0.0357%
CCCn1cc(S(=O)(=O)c2ccc(CC)cc2)c(=O)c2cc(F)c(N3CCN(C)CC3)cc21 | inactive: -2.84%
COc1ccc(OC)c(CCNC(=O)c2nn(C)c3c2CSc2ccccc2-3)c1 | inactive: -9.69%
COc1ccc(N2Cc3cccc(C(=O)Nc4cccc(F)c4)c3C2=O)cc1 | inactive: 5.16%
Cn1c(C(=O)N2CCC(C(=O)N3CCN(c4ccccc4)CC3)CC2)cc2sccc21 | inactive: -2.16%
Cc1nnc(N2CCN(c3cccc(C(F)(F)F)c3)CC2)c2c1nnn2Cc1ccccc1 | inactive: 6.17%
Cc1noc2ncnc(NCc3ccc(Cl)cc3)c12 | inactive: -15.4%
Cc1ccc(-c2cc(NC(=O)C(C)Oc3ccccc3F)on2)cc1 (stereo not drawn) | inactive: -1.08%

SMILES | activity change, negative = cytotoxicity
CN(C)c1ccc(C(=O)Nc2ccc(-c3nc4ccccc4o3)cc2)cc1 | inactive: -15.1%
Cc1cc(NC(=O)C2CCCN(S(=O)(=O)c3cn(C)cn3)C2)ccc1Br (stereo not drawn) | inactive: 7.38%
COc1ccc(N2CCN(c3oc(/C=C/c4ccccc4OC)nc3C#N)CC2)cc1 | inactive: 15.2%
COc1ccc(NC(=O)C(=O)NCc2ccco2)c(OC)c1 | inactive: 1.5%
CCOc1ccc(CC(=O)Nc2c(C(=O)c3ccc(F)cc3)oc3ccc(Cl)cc23)cc1OCC | inactive: -0.592%
Cc1cc(C)cc(NC(=O)N2CCC(N3CCN(Cc4ccccc4)C(=O)C3=O)CC2)c1 | inactive: 1.68%
O=C(Nc1ccc(C(=O)OCc2cc(=O)n3ccsc3n2)cc1)c1cccc(F)c1 | inactive: 4.03%
COc1ccc(OC)c(CNC(=O)C2CCN(S(=O)(=O)c3ccc4[nH]c(=O)oc4c3)CC2)c1 | inactive: -3.81%
CC(C)Oc1ccc(CNC(=O)c2cccc(NC(=O)c3nsc4ccccc34)c2)cc1 | inactive: -29.8%
COc1ccc(C2C=C(c3ccccc3)Nc3nc(NC(=O)/C=C/c4ccccc4OC)nn32)cc1 (stereo not drawn) | inactive: -17%
Cc1cccc(OCC(=O)N(Cc2ccc(N(C)C)cc2)Cc2ccco2)c1C | inactive: -4.5%
Cc1ccnc2nc(NC(=O)c3ccccc3Cl)nn12 | inactive: 18.9%
COC(=O)c1scc(-c2ccccc2)c1S(=O)(=O)Nc1ccc(C)c(Cl)c1 | inactive: 3.91%
CCOc1ccc(NC(=O)c2c(NCc3cccs3)sc3c2CCCCC3)cc1 | inactive: -1.59%
CC12CN3CC(c4ccccc4)(CN(C1)C3c1ccc(Cl)cc1)C2=O (stereo not drawn) | inactive: 15.6%
CC(=O)c1cc(-c2ccccc2)n(CCC(=O)NC2CCCCC2)c1C | inactive: 2.92%
Cc1cccc(N(CC(=O)N(C)Cc2ccccc2)S(=O)(=O)c2ccccc2)c1C | inactive: 17.5%
CCC(=O)N1CCc2cc(Br)cc(S(=O)(=O)N3CCCC(C(=O)Nc4ccc(OC)cc4OC)C3)c21 (stereo not drawn) | inactive: -2.88%
CCc1ccc(S(=O)(=O)c2nnn3c2nc(NC(C)C)c2cc(Cl)ccc23)cc1 | inactive: 1.88%
CCOc1ccc(NC(=O)CCC(=O)N2CCSc3ccccc32)cc1 | inactive: -7.83%
CCc1ccccc1NC(=O)Cn1c(=O)n(CCc2ccccc2)c(=O)c2ccccc21 | inactive: 19.2%
